According to the supplement of paper PMC12645437, “Orthogonal IMiD-Degron Pairs Induce Selective Protein Degradation in Cells” (ACS Chemical Biology, 2025):
Some of the results follow.

B1: Q9UKT9 (peptide)
chain: FRCNQCGRWFTQKGNLLRHIKL
B2: Q9UKT9 (peptide)
chain: FWCDVCGARFTQKGNLLRHIKL
B3: Q9UKT9 (peptide)
chain: FFCPICGRMFTQKGNLLRHIKL
B4: Q9UKT9 (peptide)
chain: FHCNVCGAVFTQKGNLLRHIKL
B5: Q9UKT9 (peptide)
chain: FECPICGRQFTQKGNLLRHIKL
B6: Q9UKT9 (peptide)
chain: FTCPQCGAYFTQKGNLLRHIKL
B7: Q9UKT9 (peptide)
chain: FQCPICGAHFTQKGNLLRHIKL
B8: Q9UKT9 (peptide)
chain: FECEICGRDFTQKGNLLRHIKL
B9: Q9UKT9 (peptide)
chain: FDCEICGRNFTQKGNLLRHIKL
B10: Q9UKT9 (peptide)
chain: FKCPVCGARFTQKGNLLRHIKL
B11: Q9UKT9 (peptide)
chain: FCCPICGHDFTQKGNLLRHIKL
B12: Q9UKT9 (peptide)
chain: FNCNVCGAHFTQKGNLLRHIKL
B13: Q9UKT9 (peptide)
chain: FGCPQCGAHFTQKGNLLRHIKL
B14: Q9UKT9 (peptide)
chain: FECPQCGAQFTQKGNLLRHIKL
B15: Q9UKT9 (peptide)
chain: FTCNQCGHYFTQKGNLLRHIKL
B16: Q9UKT9 (peptide)
chain: FFCEQCGANFTQKGNLLRHIKL
B17: Q9UKT9 (peptide)
chain: FYCEVCGAKFTQKGNLLRHIKL
B18: Q9UKT9 (peptide)
chain: LLCPICGFCCTQKGNLLRHIKL
B19: Q9UKT9 (peptide)
chain: FICNICGAEFTQKGNLLRHIKL
B20: Q9UKT9 (peptide)
chain: FRCDICGACFTQKGNLLRHIKL
B21: Q9UKT9 (peptide)
chain: FQCSVCGHSFTQKGNLLRHIKL

These sequences were tested against no compound (DMSO) (assay: log2 fold change of degron read counts, EGFP-low vs EGFP+ sorted cells; higher = lower degron-EGFP level without compound (poor expression or instability)). Details: compound: DMSO control; 18 h.
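Note: jurkat cells carrying a lentiviral library of mutant zinc finger degrons fused to EGFP plus mCherry, mCherry+ cells FACS sorted, degron abundance counted by next-generation sequencing.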

| Sequence | log2 fold change of degron read counts |
| --- | --- |
| B1 | 1.07 |
| B2 | -1.03 |
| B3 | -0.74 |
| B4 | -0.537 |
| B5 | -0.672 |
| B6 | -0.202 |
| B7 | 0.0569 |
| B8 | -1.45 |
| B9 | -1.93 |
| B10 | -0.836 |
| B11 | -0.436 |
| B12 | -0.585 |
| B13 | -1.39 |
| B14 | -2.03 |
| B15 | 0.552 |
| B16 | -1.98 |
| B17 | -2.29 |
| B18 | 1.67 |
| B19 | -1.72 |
| B20 | -1.33 |
| B21 | -1.44 |
